In all, about 110,000 compounds were measured (“z-score”: median about -0.1, highest 2% from about 2 on). The list shows a part of the results.

The target in this test is Metabotropic glutamate receptor 8 (Rattus norvegicus) (UniProt P70579). Description: mGluR8 Gi/Go-coupled signaling modulation – cell-based, rat, thallium flux, HTS, primary screen (AID 488969). The settings on record: HEK293 rat mGluR8, GIRK (G protein-gated inwardly rectifying potassium channel) thallium flux, FluoZin2; at 10 µM; stronger effect = higher value; submaximal glutamate (EC20) added with thallium.
Sequence of UniProt P70579 (P70579 whole entry, looked up): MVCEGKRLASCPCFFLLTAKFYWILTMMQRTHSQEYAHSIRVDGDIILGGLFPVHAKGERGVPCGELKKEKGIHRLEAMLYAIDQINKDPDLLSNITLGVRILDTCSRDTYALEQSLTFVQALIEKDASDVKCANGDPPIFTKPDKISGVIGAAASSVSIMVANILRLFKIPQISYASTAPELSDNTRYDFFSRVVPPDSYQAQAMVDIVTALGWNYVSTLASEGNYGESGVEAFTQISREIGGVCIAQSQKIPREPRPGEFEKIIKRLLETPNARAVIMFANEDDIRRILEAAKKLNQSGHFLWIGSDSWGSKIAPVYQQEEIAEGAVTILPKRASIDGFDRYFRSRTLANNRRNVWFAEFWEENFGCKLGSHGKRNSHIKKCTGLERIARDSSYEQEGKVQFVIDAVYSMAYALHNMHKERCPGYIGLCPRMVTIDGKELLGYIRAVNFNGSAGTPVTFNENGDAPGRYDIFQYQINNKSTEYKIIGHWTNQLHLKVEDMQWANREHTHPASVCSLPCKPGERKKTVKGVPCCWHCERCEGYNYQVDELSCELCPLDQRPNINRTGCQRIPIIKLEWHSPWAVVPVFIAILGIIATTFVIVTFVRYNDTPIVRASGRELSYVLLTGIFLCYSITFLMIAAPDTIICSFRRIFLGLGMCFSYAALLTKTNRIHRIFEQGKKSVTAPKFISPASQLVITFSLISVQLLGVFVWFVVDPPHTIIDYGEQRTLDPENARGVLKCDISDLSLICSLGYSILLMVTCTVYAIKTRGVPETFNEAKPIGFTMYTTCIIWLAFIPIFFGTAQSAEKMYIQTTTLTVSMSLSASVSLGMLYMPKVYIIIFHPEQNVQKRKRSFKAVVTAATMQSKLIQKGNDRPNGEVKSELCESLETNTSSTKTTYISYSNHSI
`O=C(/C=C\c1ccco1)Nc1ccc(N2CCN(C(=O)c3ccccc3)CC2)cc1` showed a z-score of -0.287.

`COc1ccc(Cl)c(S(=O)(=O)N2CCCC2)c1` displayed a z-score of 1.16.

Consider `COc1ccc(OC)c(NC(=O)c2cc3c(Cl)nc4ccccc4c3s2)c1`, for which the z-score was -0.02.

Consider `Cc1ccc(OCC(=O)Nc2ccc(S(=O)(=O)Nc3ccccn3)cc2)c(C)c1`, for which the z-score was -0.153.

`CC1Cc2ccccc2N1C(=O)CSC1=NCCS1` (centres undefined) gave a z-score of -0.206.

Regarding `CCCCCCc1cc2cc(-c3nnc(-c4ccccc4OC)o3)c(=O)oc2cc1O`, the z-score was -0.211.

Molecule `CN(C(=O)CCN1C(=O)c2ccccc2C1=O)C1CCCCC1` yielded a z-score of -0.12.

Take `O=C(c1ccc(-c2cccc(C(F)(F)F)c2)o1)N1CCOCC1`: the z-score stood at 0.431.

Take `Cc1ccc(CCNC(=O)C2CCCN(c3nc4ccccc4o3)C2)cc1` (centres undefined): the z-score is 0.299.

As for `Nc1nc(-c2cccc(NS(=O)(=O)c3ccccc3)c2)cs1`, the z-score is 1.4.

The molecule `CC(C)(C)C(=O)N1CCCC1C(=O)O` (centres undefined) returned a z-score of 0.797.

As to `Clc1ccc(CN2CCN(c3ncnc4scc(-c5cccs5)c34)CC2)cc1`, the z-score came out at 0.00228.

For the molecule `COc1ccc2[nH]c(=O)c(CN(Cc3nnnn3Cc3ccccc3)CC3CCCO3)cc2c1` (centres undefined), the z-score was 0.619.

`O=C(CCCCCN1C(=O)c2ccccc2C1=O)NCc1ccco1` registered a z-score of 0.687.

`O=C(NCc1ccccc1)c1cc(-n2cnnc2)ccc1Cl` came in with a z-score of 0.026.

The molecule `COCCn1c(C)nc2oc3ccc(Br)cc3c(=O)c2c1=O` yielded a z-score of -0.75.

Consider `CSc1ccc(CN(C)CC(=O)Nc2ccccc2Br)cc1`, for which the z-score was -0.0592.

As for `COc1ccc(NC(=O)CN2CCN(C3c4ccccc4-c4ccccc43)CC2)c(OC)c1`, the z-score is -1.15.

For `Cc1ccc(NC(=O)CN(C)C(=O)COc2c(Cl)cc(Cl)c3ccc(C)nc23)cc1`, the z-score was -0.273.

Molecule `Cc1[nH]c(=O)[nH]c(=O)c1NC(=O)c1sc2nc3c(C)cccc3cc2c1N` returned a z-score of -0.256.

With `COc1cccc(N/C=C/C(=O)c2ccc(Cl)cc2)c1`, the z-score turned out to be 0.0619.

In turn, `CC(=O)Nc1ccc(NC(=O)CSCCc2ccccn2)cc1` returned a z-score of 0.263.

In turn, `COc1cc(CNCc2ccccn2)ccc1OCC(=O)NC(C)(C)C` came in with a z-score of -0.0846.

Molecule `CC(C)C[C@H](NC(=O)OC(C)(C)C)c1nnc(SCC(=O)Nc2ccc(Br)cc2)o1` came in with a z-score of -0.171.

Molecule `O=C1C(C2=NC(C(=O)O)C3C(=O)N(c4ccc(Cl)cc4)C(=O)C23)=C(O)c2ccccc21` (centres undefined) gave a z-score of 0.452.

For `O=S(=O)(c1ccccc1Cl)N1CCCC1c1nc(-c2ccc(Cl)cc2)no1` (centres undefined), the z-score is 0.14.

In turn, `CCC(Oc1ccccc1)C(=O)N1CC(C)CC(C)C1` (centres undefined) showed a z-score of -0.11.

The molecule `O=C(Cc1cccc2ccccc12)NNC(=O)Nc1cccc(Cl)c1` returned a z-score of -0.184.

`COc1ccc(CC(=O)NNS(=O)(=O)c2ccc3ccccc3c2)cc1OC` returned a z-score of 0.00396.

As for `Cc1ccc2c([N+](=O)[O-])cccc2n1`, the z-score is -0.0936.

`Cc1c(C#N)c(N)c(C(=O)c2ccccc2)n1Cc1ccccc1` showed a z-score of -1.22.

The molecule `O=C(N/N=C\C=C\c1ccco1)c1cc(-c2ccc3ccccc3c2)n[nH]1` registered a z-score of -0.343.

`CCn1c(SCC(=O)c2ccc(OC)cc2)nnc1C(C)NC(=O)c1ccc(OC)cc1` (centres undefined) yielded a z-score of 0.438.

Take `COc1cc2c(cc1NC(=O)CSc1nc3ccc(C)cc3[nH]1)oc1ccccc12`: the z-score is -0.547.

The molecule `Cn1c(SCC(=O)N2CCN(c3ccccc3)CC2)nnc1-c1ccncc1` displayed a z-score of 0.0808.

`CC1(C)C(=O)OC(c2c(F)c(F)c(F)c(F)c2F)C2(CCCCC2)C1=O` (centres undefined) registered a z-score of 0.58.

In turn, `Cc1nnc(C)n1/N=C/c1cccs1` registered a z-score of -0.34.

Consider `COC(=O)c1sccc1NC(=S)Nc1cc(C)cc(C)c1`, for which the z-score worked out at 0.0724.

Consider `CS/C(=C\[N+](=O)[O-])Nc1ccc(Cl)cc1`, for which the z-score turned out to be 0.484.

`CCc1c(C)sc(NC(=O)Cn2nc(C(F)(F)F)c3c2CCCC3)c1C#N` returned a z-score of 0.0133.

In turn, `O=C(CSc1nc2c(sc3ccccc32)c(=O)n1CCO)NCc1ccco1` registered a z-score of 0.191.

Regarding `O=S(=O)(N/N=C/c1ccc(Cl)cc1)c1ccc(Cc2ncc(C(F)(F)F)cc2Cl)s1`, the z-score is -0.511.

`O=C(NCc1ccc(Cl)cc1)c1cccnc1` registered a z-score of 0.686.

Turning to `O=C(O)C1C2C=CC(C3CC23)C1C(=O)N1CCc2ccccc21` (centres undefined), the z-score was -2.23.

Regarding `Cc1nnc(NC(=O)CSc2nnc(Cc3cccn3C)n2CCc2ccccc2)s1`, the z-score was -0.602.

Turning to `CN(C)/C=N/c1sc2c(c1C#N)CC(C)(C)NC2(C)C`, the z-score is -0.745.

Turning to `CCN(c1ccccc1)S(=O)(=O)c1cc(C(=O)Nc2ccccc2Cl)ccc1F`, the z-score was 2.19.

`O=C1CSC(c2cccc(F)c2)N1c1ccccc1F` (centres undefined) showed a z-score of 0.00531.

On to `COc1ccc(/C=N/NC(=O)Cc2cc(OC)c(OC)cc2[N+](=O)[O-])cc1`, for which the z-score was -0.604.

`CS(=O)(=O)c1ccc2nc(NC(=O)c3cccc(NS(=O)(=O)c4ccc(F)c(F)c4)c3)sc2c1`: the z-score was 0.695.

The molecule `CCOC(=O)C1CCN(C(=S)Nc2cc(OC)c(OC)cc2C(=O)OC)CC1` came in with a z-score of -0.0735.

The molecule `O=C(Cc1ccc(S(=O)(=O)N2CCOCC2)s1)Nc1nc2c(s1)CCCC2` had a z-score of 0.2.

`CCn1c(SCc2nc(-c3ccccc3)no2)nnc1-c1ccco1` came in with a z-score of -0.421.

In turn, `CCOC(=O)Cn1c(S(=O)(=O)Cc2ccccc2Cl)nc(-c2ccccc2)c1-c1ccccc1` returned a z-score of -0.734.

Molecule `C=CCNC(=O)NC(=O)COC(=O)c1cccnc1SC` yielded a z-score of 0.108.

In turn, `O=C(CCS(=O)(=O)c1ccc(Br)cc1)Nc1ccccn1` displayed a z-score of 0.171.

Turning to `O=C(NC(=S)N1CCCCC1)c1cccs1`, the z-score was 0.578.

The molecule `NC(=S)NNC(=O)Nc1ccc(Cl)c(Cl)c1` yielded a z-score of 0.243.

`O=C(c1ccc(Cl)cc1)[C@@H]1[C@@H]2C(=O)N(c3ccc(Cl)cc3)C(=O)[C@@H]2C2c3ccccc3C=NN21` (some centres undefined) gave a z-score of 0.263.

Regarding `O=C(Cn1nnc(-c2ccccc2F)n1)NCCc1ccccc1`, the z-score is -0.146.

Take `COC(=O)c1cc(Cl)c(NC(=O)/C=C/c2ccc(Cl)cc2)cc1OC`: the z-score was -0.0302.

Molecule `O=C(O)c1ccc(Sc2nnc(-c3cccc(Br)c3)o2)c([N+](=O)[O-])c1` had a z-score of -1.27.

As for `O=C(Cn1nnc2ccccc21)OCC(=O)c1ccc(Cl)c(Cl)c1`, the z-score was -0.201.

As for `COc1ccc(CCNC(=O)CN(C)S(=O)(=O)c2cccc3nsnc23)cc1OC`, the z-score was -0.171.

Molecule `CCNC(=S)NNC(=O)c1csc2c1CCC(C)C2` (centres undefined) registered a z-score of 0.0328.

`COc1ccc(/C=N/NC(=O)C(=O)Nc2ccccn2)cc1OC` gave a z-score of 0.813.

`Cc1nnc(SCC(=O)Nc2ccc3c(c2)OCO3)o1` registered a z-score of -0.0329.

Consider `Cc1cc(Br)ccc1NC(=O)c1ccccc1-c1ccccc1`, for which the z-score is -0.0334.

`COc1ccc(-c2cc(C(F)(F)F)nc(N3CCCCCC3)n2)cc1` came in with a z-score of 0.144.

In the case of `O=c1c2ccccc2n2c(-c3cccc(Cl)c3)nnc2n1Cc1ccccc1`, the z-score was 1.45.

In the case of `COc1cccc(-n2c(Cc3cc(=O)[nH]c(=O)[nH]3)nnc2SCC(=O)N2CCCC2)c1`, the z-score was -0.354.

`Cn1c(=O)[nH]c(=O)c2c1nc(N1CCCCCC1)n2CCSc1nc2ccccc2[nH]1` had a z-score of -0.571.

For the molecule `COc1ccc(-c2nnc(CSc3nc4ccccc4c(=O)n3CC(C)C)o2)cc1OC`, the z-score was -0.54.

`Cc1ccc(S(=O)(=O)N(CC(O)CN(C)C)c2ccccc2)cc1` (centres undefined) showed a z-score of 0.219.

For the molecule `Cc1ccc(S(=O)(=O)NCCSCc2ccccc2)cc1`, the z-score was -0.24.

`COC(=O)c1ccc2c(=O)n(NC(C)=O)c(=S)[nH]c2c1` yielded a z-score of -0.28.

Regarding `O=C(N/N=C/c1cccc(OCc2ccccc2)c1)c1cccs1`, the z-score is -0.0806.

Molecule `Cc1ccc(C)c(NS(=O)(=O)c2cc(C(=O)NCCC3=CCCCC3)ccc2C)c1` gave a z-score of 0.0312.

`O=C(NCCN1CCN(c2ccccc2F)CC1)c1cccn2c(=O)c3ccccc3nc12` yielded a z-score of -0.425.

The molecule `N#Cc1nc(-c2ccccc2)oc1NCCN1CCCCC1` registered a z-score of 1.23.

For `O=[N+]([O-])c1cc(S(=O)(=O)N2CCCC2)ccc1N/N=C/c1cccnc1`, the z-score is -0.195.

`CCn1c(C)csc1=NC(=O)c1ccccc1` displayed a z-score of 0.492.

`CC(C)n1nc(C(=O)Nc2nnc(SCc3c(Cl)cccc3Cl)s2)c2ccccc2c1=O` came in with a z-score of -0.401.

`Nc1nnc(-c2ccco2)s1`: the z-score came to 0.345.

Consider `Cn1c(=O)c2c(nc(Br)n2CC(=O)c2cccs2)n(C)c1=O`, for which the z-score was -0.0755.

In turn, `COc1ccccc1-n1c(C)nnc1SCC(=O)NCc1ccccc1` gave a z-score of -0.334.

The molecule `CN1CCN(c2ccc([N+](=O)[O-])cc2C(=O)c2ccccc2)CC1` came in with a z-score of -0.393.

In the case of `CCOC(=O)C1=C(C)N=C2c3ccccc3C(=O)C2C1c1ccccc1` (centres undefined), the z-score was -0.101.

In the case of `COCCOC(=O)c1c(C)n(C)c2ccc(OC(=O)c3ccco3)cc12`, the z-score is -0.203.

Turning to `Cc1ccc(/C=C/C(=O)Nc2cc(C)on2)cc1`, the z-score amounted to 0.522.

Consider `O=C(CCN1C(=O)c2ccccc2C1=O)OCn1nnc2ccccc2c1=O`, for which the z-score is -0.177.

As for `CC(C)CNC(=O)c1cc([N+](=O)[O-])ccc1N1CCCCC1`, the z-score is 0.455.

The molecule `COC(=O)c1cn(-c2ccccc2)nc1-c1ccncc1` registered a z-score of -0.152.

`COc1ccc(NC(=O)[C@H](COCc2ccccc2)NC(=O)OC(C)(C)C)cc1`: the z-score stood at 0.329.

Turning to `O=C(CSc1nccn1-c1ccccc1)c1ccc(Br)cc1`, the z-score was -0.2.

In the case of `CCOC(=O)c1csc(NC(=O)c2ccc(OC)c(OC)c2)n1`, the z-score turned out to be 0.186.

`O=C(c1cccs1)N(Cc1ccco1)c1nc(-c2ccc(F)cc2)cs1` registered a z-score of -0.619.

In turn, `COCc1nnc(NC(=O)CC(C)C)s1` gave a z-score of 0.0678.

`CCOc1ccc(N(CC(=O)Nc2ccc(OC)cc2)S(C)(=O)=O)cc1` came in with a z-score of 0.896.

Regarding `O=C(C(Sc1ccccc1)c1ccc(Br)cc1)N1CCOCC1` (centres undefined), the z-score was -0.0285.

`Cc1cc2cc3c(cc2nc1SCC(=O)Nc1c(C)cccc1C)CCC3` registered a z-score of -0.104.

`COc1ccccc1NS(=O)(=O)c1cc([N+](=O)[O-])ccc1N/N=C/c1sc(N2CCOCC2)nc1-c1ccccc1` showed a z-score of -0.289.

The molecule `CCOc1cccc(C(=O)NC(=S)Nc2ccccc2)c1` gave a z-score of 1.97.

For `CCOC(=O)CNC(=O)CN1C(=O)CCS(=O)(=O)c2ccccc21`, the z-score came out at 0.54.

For the molecule `CC(=O)N1CCc2cc(S(=O)(=O)CCC(=O)O)ccc21`, the z-score was determined as 0.536.

`Cc1ccc2oc(-c3ccc(NC(=O)c4cccnc4)cc3)nc2c1` gave a z-score of -0.38.

Molecule `COCCNC(=O)COc1cccc(Oc2ccccc2)c1` came in with a z-score of -0.445.

In turn, `CCCC1=C(C(=O)OCC)C(c2ccccc2OC)NC(=O)N1` (centres undefined) yielded a z-score of -0.0802.

For `COc1ccc2[nH]c(=O)c(C(c3nnnn3C3CCCC3)N3CCN(Cc4ccc5c(c4)OCO5)CC3)cc2c1` (centres undefined), the z-score was -0.401.

For the origin of these results see PubChem BioAssay AID488969 (Vanderbilt High Throughput Screening Facility, 2010).
